Laboratory results as given in PubChem BioAssay AID1347073 (National Center for Advancing Translational Sciences (NCATS), 2019).
The whole screen tested about 45,000 compounds, of which about 200 (0.44%) were called active. Inconclusive results (about 7%) are left out. The call rests on the fitted dose curve; in most records, active means well fitted activation curve with a large enough effect; inconclusive means small, poorly fitted or top-dose-only effect; inactive means no such curve, though single readings can be large or run the other way. The list shows a part of the results.

Assay: qHTS of TDP-43 Inhibitors: NCGC Sytravon Library Screen; further: 0% is about no effect; nearly all actives have a fitted effect of over 55% in size
Settings: yeast TDP-43 toxicity rescue, BacTiter-Glo growth, 24 h; series mostly up to 46.1 µM; growth rescue (activation): at the top concentration
Outline: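 TDP-43-expressing yeast, pregrown in raffinose, seeded at OD600 0.02 in galactose medium with compound for 24 hr at 30 deg C. Growth read by BacTiter-Glo luminescence, so rescue of toxicity appears as activation.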

Row | SMILES | growth rescue (activation)
1 | Cc1ccc(C)c(-n2cc(CNCCCn3cccn3)c(-c3ccccc3)n2)c1 | inactive: -6.54%
2 | CSc1ncc(Cl)c(C(=O)Nc2ccc(S(=O)(=O)Nc3nccc(C)n3)cc2)n1 | inactive: 6.86%
3 | Cc1ccc(CCNC(=O)C2CCC(=O)N(Cc3cccc(F)c3)C2)cc1 (centres undefined) | inactive: 19.9%
4 | O=C(CSc1nncn1-c1cccnc1)Nc1ccccc1C(F)(F)F | inactive: -13.6%
5 | Fc1cc(F)cc(NC(=S)N2CCN(c3ncccn3)CC2)c1 | inactive: 16.4%
6 | Cc1csc(NC(=O)c2c(O)c3c(n(CC(C)C)c2=O)CCCC3)n1 | inactive: -14.3%
7 | CN1CCC(NC(=O)c2ccncc2)CC1 | inactive: -0.864%
8 | Cc1ccc(C(=O)c2cc3ccccc3o2)cc1[N+](=O)[O-] | inactive: -5.81%
9 | Cc1noc2ncnc(N3CCN(c4ccc(F)cc4)CC3)c12 | inactive: 10.1%
10 | OC[C@@H]1CN(Cc2ccc3c(c2)OCO3)C[C@H](n2cnc3c(NCc4ccc(F)cc4)ncnc32)O1 | inactive: 6.22%
11 | COc1cc(C)c(Cl)cc1S(=O)(=O)NCc1ccccn1 | inactive: 6.34%
12 | O=C(COC(=O)C12CC3CC(CC(C3)C1)C2)Nc1ccc([N+](=O)[O-])cc1Cl | inactive: 9.68%
13 | CCOc1ccc(/C=N/N2C(C)CCCC2C)cc1 (centres undefined) | inactive: -6.78%
14 | CC(=O)C1=C(O)C(=O)N(c2ccc(Br)cn2)C1c1ccccc1F (centres undefined) | inactive: 8.15%
15 | C/C(N)=C(/C#N)C(=O)COC(=O)C(NS(=O)(=O)c1ccc(Cl)cc1)C(C)O (centres undefined) | inactive: -2.04%
16 | FC(F)(F)c1cccc(Cc2noc(CN3CCCC3)n2)c1 | inactive: 6.64%
17 | COc1ccc(/C=C(\NC(=O)c2ccccc2)C(=O)NCCN2CCOCC2)cc1 | inactive: -21%
18 | CCOc1ccc(CNC(=O)C2CCN(c3nnc(-n4c(C)ccc4C)s3)CC2)cc1 | inactive: 10.2%
19 | CC(C)NC(=O)c1nn2c(C(F)(F)F)cc(-c3ccco3)nc2c1Cl | inactive: 7.57%
20 | Oc1ccc(/C=N/Nc2ncc(Br)cn2)c(O)c1 | inactive: 1.26%
21 | O=C(Nc1cccc(S(=O)(=O)Nc2ccc(Cl)cc2)c1)c1ccc2c(c1)OCCO2 | inactive: 8.16%
22 | COc1cn(-c2ccccc2)nc1C(=O)Nc1ccc(C)cc1Cl | inactive: 16.6%
23 | COc1ccc(S(=O)(=O)N2CCC(NC(=O)C(Cc3cccc(OC)c3OC)NC(C)=O)CC2)cc1 (centres undefined) | inactive: 9.27%
24 | CCOC(=O)N1CCN(C(=O)C2CCN(c3ncnc4c3sc3cccc(F)c34)CC2)CC1 | inactive: 5.52%
25 | COC(=O)c1cccc2c1NC(=O)C2=O | inactive: -1.37%
26 | O=[N+]([O-])c1ccc(N2CCOCC2)cn1 | inactive: -7.45%
27 | N#C/C(=C/c1ccncc1)c1nc2ccccc2c(=O)[nH]1 | inactive: 19.6%

Row | SMILES | growth rescue (activation)
28 | CC(NC(=S)Nc1ccccc1OC(F)F)C(C)(C)C (centres undefined) | inactive: 15.1%
29 | OCC1(Cc2ccccc2)CCCN(Cc2c[nH]c3ccccc23)C1 (centres undefined) | inactive: 11.8%
30 | Cc1ccc(-c2cc(C(=O)NCCCN3CCCC3)c3ccccc3n2)cc1C | inactive: -11.1%
31 | CC1SC(c2ccc(F)cc2)NC1=O (centres undefined) | inactive: 6.92%
32 | CC(C)c1ccc(NC(=O)CCCN2C(=S)NC(C)(C)CC2C)cc1 (centres undefined) | inactive: 26%
33 | C=CCOn1c(-n2nc(C)cc2C)nc2ccccc2c1=O | inactive: -6.02%
34 | COCc1c(C(=O)NC2CCCCCC2)oc2ccccc12 | inactive: 19%
35 | CCOC(=O)c1c(-c2ccc(C)cc2)csc1NC(=O)c1cc(=O)c2cc(C)ccc2o1 | inactive: -12.4%
36 | C=CCNc1nc(N)c(C(=C(C#N)C#N)c2ccccc2)s1 | inactive: 10.3%
37 | O=C1CC(C(=O)N2CCc3ccccc32)CN1c1ccc(F)cc1 (centres undefined) | inactive: -19.1%
38 | NS(=O)(=O)c1ccc2nc(NC(=O)Nc3ccc(F)cc3)sc2c1 | inactive: 9.42%
39 | CCN(CC)C(=O)C(=O)N/N=C/c1cccs1 | inactive: 2.38%
40 | COc1cc(NC(=O)/C=C/c2ccccc2[N+](=O)[O-])cc(OC)c1 | inactive: 0.0816%
41 | O=C(CN(CCO)c1ccccc1)Nc1cccc(S(=O)(=O)N2CCCC2)c1 | inactive: -4.64%
42 | CSc1ccc(Cl)c(C(=O)Nc2ccc(C)cn2)c1 | inactive: 22.7%
43 | O=C(N/N=C/c1ccc(Br)s1)c1cccs1 | inactive: -15.9%
44 | O=C(O)C1=NN(c2ccccc2)C(=O)C1 | inactive: 3.34%
45 | Cc1ccc2c(c1)N(CC(=O)N1CCC(O)CC1)C(=O)CO2 | inactive: 2.44%
46 | O=C(CCc1ccccc1)NNC(=O)Nc1ccccc1 | inactive: 2.41%
47 | CCn1c(SCC(=O)NNC(=S)Nc2ccc(C)cc2)nnc1-c1ccc(Cl)cc1 | inactive: 2.29%
48 | CN(C)CC(O)COc1cccc(OCC(O)CN(C)C)c1 (centres undefined) | inactive: 19.8%
49 | N=c1n(CC(=O)c2ccc([N+](=O)[O-])cc2)c2ccccc2n1Cc1ccccc1Cl | inactive: -14.1%
50 | Cc1cc(C)cc(NC(=O)c2cc(=O)c3ccccc3o2)c1 | inactive: 9.03%
51 | COCCNC(=O)C1CC(=O)N(c2ccc(OC)cc2)C1c1ccc(OC)cc1 (centres undefined) | inactive: 12.5%
52 | CCSC1(SCC)N=C(N)C2(C#N)C(c3ccccc3)NC(C)=CC12C#N (centres undefined) | inactive: 13.7%
53 | O=C(NC1CC1)c1ccc(C2SCC(=O)N2Cc2ccccc2)cc1 (centres undefined) | inactive: -6.75%
54 | CCc1nc(NCCCn2ccnc2)c2oc3ccccc3c2n1 | inactive: -24%
